Measured values: PubChem BioAssay AID1461 (National Center for Advancing Translational Sciences (NCATS), 2008)
Screen size: about 220,000 compounds; about 2,300 (1%) were called active. Inconclusive means that the source gave no clear call. Such entries were picked first, then a sample of the others. The call rests on the fitted dose curve; in most records, active means well fitted inhibition curve with a large enough effect; inconclusive means small, poorly fitted or top-dose-only effect, or effect the other way; inactive means no such curve, though single readings can be large or run the other way. Potencies of inconclusive entries are left out as doubtful fits.
Further: nearly all actives have a fitted effect of over 50% in size.
On the % scale 0 is the no-effect control and ±100 the full control effect; potency means the concentration at half of the fitted maximal effect; tags describe the fitted curve by direction and shape.

Each molecule was assayed against Neuropeptide S receptor (Homo sapiens) (UniProt Q6W5P4) (assay: qHTS Assay for Antagonists of the Neuropeptide S Receptor: cAMP Signal Transduction). Conditions: CHO-NPSR cells, cAMP TR-FRET, antagonist mode; activity change, negative = inhibition: at 38.3 µM (top of the series) unless noted.
UniProt Q6W5P4, sequence (Q6W5P4 whole entry, looked up): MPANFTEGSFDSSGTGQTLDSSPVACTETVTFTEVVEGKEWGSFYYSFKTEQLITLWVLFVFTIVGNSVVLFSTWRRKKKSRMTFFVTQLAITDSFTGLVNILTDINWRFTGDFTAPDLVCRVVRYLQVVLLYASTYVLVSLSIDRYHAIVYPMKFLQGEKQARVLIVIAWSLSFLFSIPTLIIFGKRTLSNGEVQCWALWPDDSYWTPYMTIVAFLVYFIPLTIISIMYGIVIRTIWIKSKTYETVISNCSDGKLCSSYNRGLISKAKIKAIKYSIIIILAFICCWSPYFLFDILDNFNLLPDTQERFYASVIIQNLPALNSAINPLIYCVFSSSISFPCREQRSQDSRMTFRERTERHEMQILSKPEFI
`C=C(C(=O)c1ccccc1)C(C(=C)C(=O)c1ccccc1)c1ccc(OC)cc1` was tested, and the Potency was inconclusive [activator, partial curve].
With `O/N=C(\c1ccc(Cl)cc1Cl)c1ncc(C(F)(F)F)cc1Cl` the Potency was inconclusive [inhibitor, single point].
With `Cc1cc2nc(SCC(=O)N(C)C)c3c(c2cc1C)CCCC3` the Potency was inconclusive [inhibitor, partial curve].
`Cc1ccc(Oc2nnc(-c3cccs3)c3ccccc23)cc1C` was tested, and the Potency was inconclusive [inhibitor, single point].
In the case of `CCOC(=O)c1c(NC(=O)c2ccc(C)cc2)sc2c1CC(C)(C)OC2`, the Potency is reported as inconclusive [inhibitor, partial curve].
For `O=C(C#Cc1ccccc1)c1cccc([N+](=O)[O-])c1`, the Potency was inconclusive [inhibitor, single point].
In the case of `CC(C(=O)N1c2ccccc2Sc2ccccc21)n1nnc(-c2cccs2)n1` (stereo unspecified), the Potency is reported as inconclusive [inhibitor, single point].
For `Cc1sc2nc(CSc3nnc(Cc4cccs4)n3C3CCCCC3)[nH]c(=O)c2c1C`, the Potency was inconclusive [inhibitor, partial curve].
In the case of `O=C(c1cc2c(cc1Br)OCCCO2)N1CCCCC1`, the “activity change, negative = inhibition” value is reported as inactive: 4.2%.
`CC(C)(C)c1ccc(OCCOc2ccc(C(C)(C)C)cc2NC=O)c(NC=O)c1` was tested, and the Potency was inconclusive [activator, single point].
In the case of `O=C(N1CCN(c2ccccc2F)CC1)C12CC3CC(CC(C3)C1)C2`, the Potency is reported as inconclusive [inhibitor, single point].
For `O=C(Nc1ccc(Oc2c(F)c(F)c(F)c(F)c2F)cc1)OC1CCN2Cc3ccccc3N=C12` (stereo unspecified), the Potency was active: 2 µM.
With `O=C(C1=C[C@@H](c2ccc(C(F)(F)F)cc2)C[C@@H](OCc2ccc(CO)cc2)O1)N1CCN(Cc2ccc3c(c2)OCO3)CC1` the Potency was inconclusive [activator, partial curve].
`COC(=O)c1ccc(NC(=O)CN2CCN(S(=O)(=O)c3cc(Cl)ccc3OC)CC2)cc1` was tested, and the “activity change, negative = inhibition” value was inactive: -7.53% [at 46.1 µM].
With `Cc1cc(C(=O)CSc2nncs2)c(C)n1-c1c(C)n(C)n(-c2ccccc2)c1=O` the “activity change, negative = inhibition” value was inactive: -8.53% [at 46.1 µM].
For `O=C1C=C(NCc2ccc(Cl)c(Cl)c2)C2(CCCCC2)O1`, the Potency was inconclusive [activator, single point].
With `O=C(CCCn1c(SCc2cccc(F)c2)nc2ccccc2c1=O)NCC1CCCO1` (stereo unspecified) the Potency was inconclusive [inhibitor, single point].
`CSc1ccccc1N=Cc1nc(-c2ccccc2)oc1O` was tested, and the Potency was inconclusive [inhibitor, partial curve, poor fit].
With `CCOC(=O)c1cc2sc(C)cc2n1CC(=O)NCc1ccc(F)cc1` the Potency was inconclusive [activator, single point].
`C/C=C(/C(=C/C)c1ccc(O)cc1)c1ccc(O)cc1` was tested, and the “activity change, negative = inhibition” value was inactive: -22.8%.
`Cc1cccc(-c2nnc(-c3cccc(NC(=O)Cc4cccs4)c3)o2)c1` was tested, and the Potency was inconclusive [inhibitor, single point].
With `COc1ccc(CCN2C(=O)CSC2=Nc2ccc(C(C)C)cc2)cc1OC` the Potency was inconclusive [activator, single point].
With `Fc1ccc(/C=C2\CCCC3=C2Nc2ncnn2C3c2ccc(F)cc2)cc1` (stereo unspecified) the Potency was inconclusive [inhibitor, partial curve].
`CCOCCCNC(=O)Cn1ncc2c(=O)oc3ccccc3c21` was tested, and the Potency was inconclusive [inhibitor, single point].
In the case of `O=C(NC1CCCCC1)C(c1ccncc1)N(Cc1ccccc1)C(=O)c1ccc(-c2ccccc2)[nH]1` (stereo unspecified), the Potency is reported as inconclusive [inhibitor, partial curve].
For `Cc1ccc(C)c(S(=O)(=O)c2c(N)n(/N=C/c3ccco3)c3nc4ccccc4nc23)c1`, the Potency was inconclusive [inhibitor, full curve, poor fit].
`COCCn1c(CN(Cc2ccccc2)Cc2ccccc2)nc2c1c(=O)n(C)c(=O)n2C` was tested, and the “activity change, negative = inhibition” value was inactive: -20.7% [at 46.1 µM].
`COc1ccccc1-n1c(=S)sc2c(=O)n(Cc3ccco3)c(SC)nc21` was tested, and the Potency was inconclusive [inhibitor, partial curve].
In the case of `Cc1cccc(N2CCN(C(=O)Cn3sc4nc(C)cc(C)c4c3=O)CC2C)c1` (stereo unspecified), the Potency is reported as inconclusive [inhibitor, single point].
`O=C1NCC(c2ccccc2)C1C(=O)N/N=C\c1ccc(-c2cccc(Cl)c2Cl)o1` (stereo unspecified) was tested, and the Potency was inconclusive [inhibitor, single point].
In the case of `CC(C)c1ccc(-c2nn[nH]n2)cc1`, the Potency is reported as inconclusive [inhibitor, single point].
In the case of `CCn1c(NC(=O)c2cccs2)nc2ccccc21`, the Potency is reported as inconclusive [inhibitor, partial curve, poor fit].
In the case of `Cc1ccc(C(C)C)c(OCc2ccc(C(=O)N/N=C/c3cccc(O)c3O)cc2)c1`, the Potency is reported as active: 10 µM.
For `CN1CCN(C(=O)CN(CCc2ccccc2)S(C)(=O)=O)CC1`, the Potency was inconclusive [inhibitor, single point].
In the case of `CCn1c(C)csc1=NC(=O)c1ccccc1O`, the Potency is reported as inconclusive [inhibitor, single point].
In the case of `N#CCSc1ncnc2sc3c(c12)CCC3`, the Potency is reported as inconclusive [inhibitor, single point].
In the case of `Cc1ccc(C(=O)OCC(=O)Nc2ccccc2)cc1NC(=O)c1ccco1`, the “activity change, negative = inhibition” value is reported as inactive: -14.5% [at 46.1 µM].
With `Cc1cccc(/C=N\NC(=O)c2sccc2-n2cccc2)c1` the Potency was inconclusive [inhibitor, single point].
In the case of `CCCCSc1nnc(CNC(=O)C23CC4CC(CC(C4)C2)C3)n1Cc1ccccc1`, the Potency is reported as inconclusive [inhibitor, single point].
In the case of `COc1ccc(C2c3c(ccc4ccccc34)Oc3ncn4nc(-c5ccco5)nc4c32)cc1OC` (stereo unspecified), the “activity change, negative = inhibition” value is reported as inactive: 14.5%.
For `C=CCn1c(SCC(=O)Nc2sccc2C(N)=O)nc2ccc(Cl)cc2c1=O`, the Potency was inconclusive [inhibitor, single point].
For `CCOc1ccc(NC(=O)C2CCC(C)(C(=O)O)C2(C)C)cc1` (stereo unspecified), the Potency was inconclusive [inhibitor, single point].
With `O=C(c1cc2sccc2n1Cc1ccccc1)N1CCCc2ccccc21` the Potency was inconclusive [inhibitor, single point].
With `COC(=O)c1ccc2c(c1)C(C)(C)C(/C=C/c1ccc(OC)c(OC)c1OC)=[N+]2C` the Potency was active: 10 µM.
`CCC(C(=O)NC(C)CCc1ccccc1)n1nc(C)n2c(cc3occc32)c1=O` (stereo unspecified) was tested, and the Potency was inconclusive [inhibitor, single point].
For `O=[N+]([O-])c1cc(/C=N/n2cnnc2)ccc1N1CCCC1`, the “activity change, negative = inhibition” value was inactive: -14.7%.
For `Cc1ccc(S(=O)(=O)N(c2ccccc2)C2CCS(=O)(=O)C2)cc1` (stereo unspecified), the Potency was inconclusive [inhibitor, single point].
For `CC(=O)Nc1ccc(C2=NNC(=NCC3CCCO3)SC2)cc1` (stereo unspecified), the “activity change, negative = inhibition” value was inactive: -4.97% [at 46.1 µM].
In the case of `CCCn1c(C)cc(=O)c2cc(NC(=O)c3cnccn3)ccc21`, the Potency is reported as inconclusive [inhibitor, single point].
In the case of `NNC(=O)c1cccc(COc2ccc(Br)cc2)c1`, the “activity change, negative = inhibition” value is reported as inactive: 16.6%.
For `O=C(C1=NN(c2ccccc2)C2C(=O)N(c3ccccc3Cl)C(=O)C12)c1ccccc1` (stereo unspecified), the Potency was inconclusive [inhibitor, single point].
For `Cc1cccc(-c2cc3nc4c(c(N5CCCC(O)C5)n3n2)CCC4)c1` (stereo unspecified), the Potency was inconclusive [inhibitor, single point].
With `N#CC(C#N)=C1C=CC=CN1/C(=C\c1ccccc1)C(=O)c1cccs1` the Potency was inconclusive [inhibitor, single point].
For `Cc1cc(C)n(-c2nc(N(c3ccccc3)c3ccccc3)nc(-n3nc(C)cc3C)n2)n1`, the Potency was active: 12.6 µM.
In the case of `C/C(=N\Nc1nnc(-c2ccccc2)c(-c2ccccc2)n1)c1cccc([N+](=O)[O-])c1`, the Potency is reported as inconclusive [inhibitor, full curve].
`COc1ccc(C)cc1NC(=O)CSc1nnc(-c2ccc(Br)cc2)o1` was tested, and the Potency was inconclusive [inhibitor, single point].
`O=C(CCl)Nc1ccc(Sc2ccc(NC(=O)CCl)cc2)cc1` was tested, and the Potency was inconclusive [inhibitor, single point].
`CC1CCC(C(C)C)C(OC(=O)COC(=O)c2cccn2C)C1` (stereo unspecified) was tested, and the Potency was inconclusive [inhibitor, single point].
For `c1ccc(CN(Cc2ccccc2)c2ncnc3c2nnn3Cc2ccccc2)cc1`, the Potency was inconclusive [activator, single point].
For `CC(NC(=O)/C(C#N)=C/c1cccs1)c1ccccc1` (stereo unspecified), the “activity change, negative = inhibition” value was inactive: -19.7%.
For `O=C(c1cc2ccccc2o1)N1CCN(c2ccccc2Cl)CC1`, the Potency was inconclusive [inhibitor, single point].
In the case of `CCCN(CCC)C1=N/C(=C\c2ccco2)C(=O)N1c1ccccc1`, the Potency is reported as inconclusive [inhibitor, single point].
`CC(C)c1nc2sc3c(=O)[nH]cnc3c2c2c1CCCC2` was tested, and the Potency was inconclusive [activator, single point].
In the case of `O=C(Nc1ccccc1)C1=C[C@@H](c2ccc(C(F)(F)F)cc2)C[C@@H](OCc2ccc(CO)cc2)O1`, the Potency is reported as inconclusive [activator, single point].
With `Cc1ccc(-n2nnnc2SCc2nnc(-c3ccccc3Br)o2)c(C)c1` the Potency was inconclusive [inhibitor, partial curve].
With `O=C(C1=C[C@H](c2csc3ccccc23)C[C@H](OCc2ccc(CO)cc2)O1)N1CCN(Cc2ccccc2)CC1` the Potency was inconclusive [activator, partial curve].
